From paper PMC8448848
Results are given in words; binding and its absence hold for the method and conditions named. In cells and extracts the contact can be indirect. Some entries that bind do so weakly or less than the wild type.

Protein sequences, listed by entry. Tags and fused reporters are not part of them.
UniProt P38398: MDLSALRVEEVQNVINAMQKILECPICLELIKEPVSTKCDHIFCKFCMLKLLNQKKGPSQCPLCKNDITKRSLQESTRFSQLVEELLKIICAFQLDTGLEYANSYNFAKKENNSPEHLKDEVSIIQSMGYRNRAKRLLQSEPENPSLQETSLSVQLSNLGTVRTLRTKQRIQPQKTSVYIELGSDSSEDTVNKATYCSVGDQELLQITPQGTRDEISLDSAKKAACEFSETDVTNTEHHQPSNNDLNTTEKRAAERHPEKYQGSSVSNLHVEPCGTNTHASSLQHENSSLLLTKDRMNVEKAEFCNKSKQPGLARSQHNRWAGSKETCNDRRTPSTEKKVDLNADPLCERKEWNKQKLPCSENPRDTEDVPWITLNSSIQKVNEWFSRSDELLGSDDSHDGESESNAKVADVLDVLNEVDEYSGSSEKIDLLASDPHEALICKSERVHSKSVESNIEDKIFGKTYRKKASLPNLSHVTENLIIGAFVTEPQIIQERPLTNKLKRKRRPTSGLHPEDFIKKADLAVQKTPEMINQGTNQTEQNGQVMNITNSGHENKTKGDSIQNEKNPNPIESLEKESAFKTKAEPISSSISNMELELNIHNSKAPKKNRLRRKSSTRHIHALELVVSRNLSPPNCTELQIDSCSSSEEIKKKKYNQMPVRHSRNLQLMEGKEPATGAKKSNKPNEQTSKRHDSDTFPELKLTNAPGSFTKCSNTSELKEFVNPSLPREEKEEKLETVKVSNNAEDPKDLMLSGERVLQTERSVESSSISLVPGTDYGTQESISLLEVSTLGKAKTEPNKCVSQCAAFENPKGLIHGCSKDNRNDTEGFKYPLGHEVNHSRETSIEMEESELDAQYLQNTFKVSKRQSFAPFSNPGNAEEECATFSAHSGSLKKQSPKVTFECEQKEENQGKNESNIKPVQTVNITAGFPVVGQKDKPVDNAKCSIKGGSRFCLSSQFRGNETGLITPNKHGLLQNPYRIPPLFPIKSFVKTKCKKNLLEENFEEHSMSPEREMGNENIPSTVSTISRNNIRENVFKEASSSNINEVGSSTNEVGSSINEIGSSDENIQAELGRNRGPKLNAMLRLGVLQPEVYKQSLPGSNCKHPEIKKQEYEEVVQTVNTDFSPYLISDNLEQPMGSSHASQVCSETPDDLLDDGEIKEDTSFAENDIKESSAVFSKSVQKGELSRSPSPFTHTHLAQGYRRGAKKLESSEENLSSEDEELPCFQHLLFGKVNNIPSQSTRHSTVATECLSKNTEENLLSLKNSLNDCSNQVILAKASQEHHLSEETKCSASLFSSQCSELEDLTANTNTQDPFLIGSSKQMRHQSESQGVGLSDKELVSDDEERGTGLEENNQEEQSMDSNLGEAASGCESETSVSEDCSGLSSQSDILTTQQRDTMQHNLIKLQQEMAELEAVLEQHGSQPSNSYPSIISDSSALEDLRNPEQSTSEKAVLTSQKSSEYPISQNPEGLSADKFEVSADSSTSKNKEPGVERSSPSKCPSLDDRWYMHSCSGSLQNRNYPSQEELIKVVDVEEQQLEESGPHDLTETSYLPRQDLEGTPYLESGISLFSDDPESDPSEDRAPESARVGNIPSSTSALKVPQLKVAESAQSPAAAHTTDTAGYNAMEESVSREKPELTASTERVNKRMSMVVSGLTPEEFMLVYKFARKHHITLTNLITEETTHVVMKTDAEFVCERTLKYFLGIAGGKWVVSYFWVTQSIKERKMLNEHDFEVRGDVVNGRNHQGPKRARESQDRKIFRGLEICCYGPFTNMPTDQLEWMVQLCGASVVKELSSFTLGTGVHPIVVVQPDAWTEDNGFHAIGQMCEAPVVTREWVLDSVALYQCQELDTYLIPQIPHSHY
UniProt Q7Z333: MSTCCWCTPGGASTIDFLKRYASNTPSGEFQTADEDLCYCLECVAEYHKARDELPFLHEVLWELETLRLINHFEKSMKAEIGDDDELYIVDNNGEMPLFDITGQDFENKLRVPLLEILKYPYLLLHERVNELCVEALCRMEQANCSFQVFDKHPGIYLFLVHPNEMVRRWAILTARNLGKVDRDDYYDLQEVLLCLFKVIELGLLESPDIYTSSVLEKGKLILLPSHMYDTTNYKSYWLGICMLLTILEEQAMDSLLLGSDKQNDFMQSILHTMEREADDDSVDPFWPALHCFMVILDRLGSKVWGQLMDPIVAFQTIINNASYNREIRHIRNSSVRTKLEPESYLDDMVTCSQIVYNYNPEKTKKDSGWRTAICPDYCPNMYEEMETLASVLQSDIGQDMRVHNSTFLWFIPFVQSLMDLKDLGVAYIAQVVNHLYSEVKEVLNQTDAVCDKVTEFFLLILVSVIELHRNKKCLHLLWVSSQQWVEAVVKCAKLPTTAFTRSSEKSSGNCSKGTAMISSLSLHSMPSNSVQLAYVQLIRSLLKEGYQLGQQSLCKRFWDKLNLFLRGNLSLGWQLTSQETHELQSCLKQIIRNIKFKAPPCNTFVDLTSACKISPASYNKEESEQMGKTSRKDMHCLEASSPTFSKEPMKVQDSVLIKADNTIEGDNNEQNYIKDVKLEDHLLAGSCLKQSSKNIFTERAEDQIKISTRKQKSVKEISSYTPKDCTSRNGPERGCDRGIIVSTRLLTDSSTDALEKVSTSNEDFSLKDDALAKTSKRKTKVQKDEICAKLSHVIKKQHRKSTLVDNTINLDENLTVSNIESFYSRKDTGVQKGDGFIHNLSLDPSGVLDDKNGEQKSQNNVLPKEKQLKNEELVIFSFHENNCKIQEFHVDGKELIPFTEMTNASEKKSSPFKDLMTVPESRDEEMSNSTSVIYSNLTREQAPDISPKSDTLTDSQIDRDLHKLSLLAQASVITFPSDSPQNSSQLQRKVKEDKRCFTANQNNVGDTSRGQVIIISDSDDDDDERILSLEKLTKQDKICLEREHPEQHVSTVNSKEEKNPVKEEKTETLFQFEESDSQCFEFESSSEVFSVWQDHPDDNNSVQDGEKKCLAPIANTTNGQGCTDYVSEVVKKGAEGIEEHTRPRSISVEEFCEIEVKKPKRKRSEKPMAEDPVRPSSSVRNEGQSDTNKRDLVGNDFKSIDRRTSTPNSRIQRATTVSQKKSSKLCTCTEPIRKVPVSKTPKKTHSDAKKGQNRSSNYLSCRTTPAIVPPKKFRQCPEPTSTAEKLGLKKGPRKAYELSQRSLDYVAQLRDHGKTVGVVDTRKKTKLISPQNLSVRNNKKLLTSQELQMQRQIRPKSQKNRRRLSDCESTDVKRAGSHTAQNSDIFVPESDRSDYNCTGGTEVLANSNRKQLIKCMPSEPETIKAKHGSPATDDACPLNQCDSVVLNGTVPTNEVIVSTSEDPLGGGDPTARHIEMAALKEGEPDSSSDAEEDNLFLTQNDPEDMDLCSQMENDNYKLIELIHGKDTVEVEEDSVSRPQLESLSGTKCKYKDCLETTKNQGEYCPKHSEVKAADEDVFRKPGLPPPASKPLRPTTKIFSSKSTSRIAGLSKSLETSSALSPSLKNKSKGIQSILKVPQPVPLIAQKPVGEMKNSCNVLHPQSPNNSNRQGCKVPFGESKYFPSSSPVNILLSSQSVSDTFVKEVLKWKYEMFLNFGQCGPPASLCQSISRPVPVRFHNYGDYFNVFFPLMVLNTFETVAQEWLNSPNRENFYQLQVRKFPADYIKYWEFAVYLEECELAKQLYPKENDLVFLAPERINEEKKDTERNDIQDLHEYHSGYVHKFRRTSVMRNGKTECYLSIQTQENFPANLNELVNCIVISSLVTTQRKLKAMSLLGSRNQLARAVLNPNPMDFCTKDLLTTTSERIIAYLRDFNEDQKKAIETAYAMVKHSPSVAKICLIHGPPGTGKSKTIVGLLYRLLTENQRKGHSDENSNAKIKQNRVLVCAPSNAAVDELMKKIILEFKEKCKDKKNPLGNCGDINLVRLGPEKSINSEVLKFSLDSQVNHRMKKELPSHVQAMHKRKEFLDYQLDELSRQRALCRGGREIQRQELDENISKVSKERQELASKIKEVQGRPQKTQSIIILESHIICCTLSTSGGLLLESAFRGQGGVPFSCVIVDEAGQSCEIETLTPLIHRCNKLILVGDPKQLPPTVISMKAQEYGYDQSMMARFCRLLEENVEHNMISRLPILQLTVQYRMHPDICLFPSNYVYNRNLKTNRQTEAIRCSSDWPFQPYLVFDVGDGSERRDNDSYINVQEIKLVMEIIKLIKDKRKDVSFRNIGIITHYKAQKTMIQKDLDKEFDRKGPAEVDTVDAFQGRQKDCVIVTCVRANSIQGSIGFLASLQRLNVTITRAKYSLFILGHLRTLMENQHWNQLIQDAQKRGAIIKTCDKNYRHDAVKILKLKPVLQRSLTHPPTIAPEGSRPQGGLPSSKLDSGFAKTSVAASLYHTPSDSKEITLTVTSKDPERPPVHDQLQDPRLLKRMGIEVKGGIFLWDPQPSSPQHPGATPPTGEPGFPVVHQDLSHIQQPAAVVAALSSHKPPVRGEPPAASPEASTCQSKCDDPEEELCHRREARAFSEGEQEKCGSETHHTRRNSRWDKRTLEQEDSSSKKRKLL
UniProt P13010: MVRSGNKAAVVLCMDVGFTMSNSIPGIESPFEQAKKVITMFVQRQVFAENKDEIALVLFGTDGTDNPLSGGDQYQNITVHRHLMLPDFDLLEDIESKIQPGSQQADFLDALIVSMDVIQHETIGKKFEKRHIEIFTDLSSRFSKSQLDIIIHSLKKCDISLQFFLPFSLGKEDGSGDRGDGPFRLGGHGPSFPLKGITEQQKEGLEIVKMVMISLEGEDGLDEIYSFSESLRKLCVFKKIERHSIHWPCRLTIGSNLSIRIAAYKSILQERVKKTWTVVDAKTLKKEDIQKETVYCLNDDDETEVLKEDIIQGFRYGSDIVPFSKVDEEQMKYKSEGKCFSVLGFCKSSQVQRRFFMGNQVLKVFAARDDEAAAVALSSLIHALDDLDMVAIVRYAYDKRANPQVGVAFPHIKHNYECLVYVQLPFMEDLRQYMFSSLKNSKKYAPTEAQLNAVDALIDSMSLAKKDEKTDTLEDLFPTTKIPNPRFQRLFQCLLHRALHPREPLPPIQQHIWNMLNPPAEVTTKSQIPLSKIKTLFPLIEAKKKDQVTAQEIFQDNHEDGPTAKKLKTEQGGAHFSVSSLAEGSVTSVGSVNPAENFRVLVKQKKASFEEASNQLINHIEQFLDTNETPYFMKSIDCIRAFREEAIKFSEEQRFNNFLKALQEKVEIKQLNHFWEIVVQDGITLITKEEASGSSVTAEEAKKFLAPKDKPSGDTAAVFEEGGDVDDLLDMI

Key:
Assay in all cases: co-IP; endogenous proteins of U2OS lysate (50 mM Tris-HCl pH 7.4, 100 mM NaCl, 1 mM EDTA, 0.2% Triton X-100), 30 min on ice with Benzonase (90 U/ml); 1 mg extract with anti-BRCA1, anti-ADAR2 or anti-SETX antibody or control IgG at 4 °C, protein A Dynabeads, western blot; BRCA1 IP from cells irradiated (1 h after IR) or not
[1] = target: ADAR2 (human (endogenous in U2OS)) (UniProt P78563)
[2] = target: BRCA1 (human (endogenous in U2OS)) (UniProt P38398)
[3] = target: Senataxin (human (endogenous in U2OS)) (UniProt Q7Z333)

Molecule	binding [1]	binding [2]	binding [3]
Ku80 (from UniProt P13010 1-732)	no binding		
ADAR2 (from UniProt P78563 1-741) (enzyme)		binds	binds
Senataxin (from UniProt Q7Z333 1-2677) (enzyme)	binds	binds	
ADAR1 (enzyme, UniProt P55265 1-1226) MNPRQGYSLSGYYTHPFQGYEHRQLRYQQPGPGSSPSSFLLKQIEFLKGQLPEAPVIGKQTPSLPPSLPGLRPRFPVLLASSTRGRQVDIRGVPRGVHLRSQGLQRGFQHPSPRGRSLPQRGVDCLSSHFQELSIYQDQEQRILKFLEELGEGKATTAHDLSGKLGTPKKEINRVLYSLAKKGKLQKEAGTPPLWKIAVSTQAWNQHSGVVRPDGHSQGAPNSDPSLEPEDRNSTSVSEDLLEPFIAVSAQAWNQHSGVVRPDSHSQGSPNSDPGLEPEDSNSTSALEDPLEFLDMAEIKEKICDYLFNVSDSSALNLAKNIGLTKARDINAVLIDMERQGDVYRQGTTPPIWHLTDKKRERMQIKRNTNSVPETAPAAIPETKRNAEFLTCNIPTSNASNNMVTTEKVENGQEPVIKLENRQEARPEPARLKPPVHYNGPSKAGYVDFENGQWATDDIPDDLNSIRAAPGEFRAIMEMPSFYSHGLPRCSPYKKLTECQLKNPISGLLEYAQFASQTCEFNMIEQSGPPHEPRFKFQVVINGREFPPAEAGSKKVAKQDAAMKAMTILLEEAKAKDSGKSEESSHYSTEKESEKTAESQTPTPSATSFFSGKSPVTTLLECMHKLGNSCEFRLLSKEGPAHEPKFQYCVAVGAQTFPSVSAPSKKVAKQMAAEEAMKALHGEATNSMASDNQPEGMISESLDNLESMMPNKVRKIGELVRYLNTNPVGGLLEYARSHGFAAEFKLVDQSGPPHEPKFVYQAKVGGRWFPAVCAHSKKQGKQEAADAALRVLIGENEKAERMGFTEVTPVTGASLRRTMLLLSRSPEAQPKTLPLTGSTFHDQIAMLSHRCFNTLTNSFQPSLLGRKILAAIIMKKDSEDMGVVVSLGTGNRCVKGDSLSLKGETVNDCHAEIISRRGFIRFLYSELMKYNSQTAKDSIFEPAKGGEKLQIKKTVSFHLYISTAPCGDGALFDKSCSDRAMESTESRHYPVFENPKQGKLRTKVENGEGTIPVESSDIVPTWDGIRLGERLRTMSCSDKILRWNVLGLQGALLTHFLQPIYLKSVTLGYLFSQGHLTRAICCRVTRDGSAFEDGLRHPFIVNHPKVGRVSIYDSKRQSGKTKETSVNWCLADGYDLEILDGTRGTVDGPRNELSRVSKKNIFLLFKKLCSFRYRRDLLRLSYGEAKKAARDYETAKNYFKKGLKDMGYGNWISKPQEEKNFYLCPV		binds	
